Several values for one entry are separate records, joined by “and”; a condition that tells them apart may be missing. Identical values can stand only once. Out of some 420,000 compounds screened, about 64,000 (15%) were called active. The inconclusive results got no clear call from the source; some entries with a clear call stand among them for comparison. Calls come from the whole dose curve; as a rule, active = well fitted inhibition curve with a large enough effect; inconclusive = small, poorly fitted or top-dose-only effect; inactive = flat fitted curve, though single readings scatter. Potencies beside an inconclusive call are fits to weak or partial responses and may not hold up.
Experiment: qHTS for Inhibitors of human tyrosyl-DNA phosphodiesterase 1 (TDP1): qHTS in cells in absence of CPT; note: nearly all actives have a fitted effect of over 55% in size
Conditions: DT40 Tdp1-/- hTDP1 cells, no CPT, ATP luminescence, 48 h; activity change, negative = growth inhibition: at 46.2 µM (top of the series) unless noted
Method in brief: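 Camptothecin absent (DMSO only). Human TDP1-complemented DT40 knockout cells, 400 cells/well, 37 °C for minimum 48 hr; ATP measured via CellTiter-Glo, 30 min dark incubation, luminescence.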
In the case of `Cc1nn(C)c(C)c1CNC(=O)c1nn2c(c1Cl)NC(c1cccs1)CC2C(F)(F)F` (centres undefined), the Potency is reported as active: 9.2 µM.
For `CC1CCN(C(=O)CN2CC(C)Sc3ccccc32)CC1` (centres undefined), the Potency was inconclusive: 25.9 µM [inhibitor, single point].
In the case of `COc1ccccc1C(c1nnnn1CCc1ccccc1)N1CCCCCC1` (centres undefined), the Potency is reported as active: 23.1 µM.
In the case of `CCCC(=O)Nc1sc2c(c1C#N)CCCCC2`, the Potency is reported as inconclusive: 16.4 µM [inhibitor, partial curve].
For `COc1ccc(Nc2nc3ccccc3n3c(N)nnc23)cc1`, the Potency was inconclusive: 14.6 µM [inhibitor, single point].
In the case of `Nc1ccc(Sc2ccccc2Cl)nc1`, the “activity change, negative = growth inhibition” value is reported as inactive: -17.5%.
With `CCOc1ccc(C(=O)Nc2ccc(N3CCN(S(C)(=O)=O)CC3)cc2)cc1[N+](=O)[O-]` the “activity change, negative = growth inhibition” value was inactive: -7.72%.
In the case of `COc1ccc(CC(=O)Nc2nccs2)cc1OC`, the Potency is reported as inconclusive: 29.1 µM [inhibitor, single point].
With `CCCS(=O)(=O)N1CCC(C(=O)NC2CCCC(C)C2C)CC1` (centres undefined) the Potency was inconclusive: 29.1 µM [inhibitor, single point].
In the case of `COc1ccc(C(C(=O)NC2CCCC2)N(C(=O)c2snc(C(N)=O)c2N)c2cccc(O)c2)cc1` (centres undefined), the Potency is reported as active: 13 µM.
With `O=C(Nc1ccccn1)c1ccc(CN(c2ccccc2)S(=O)(=O)c2ccccc2)cc1` the Potency was inconclusive: 18.4 µM [inhibitor, single point].
For `Cc1cccc(C(=O)Nc2ccc(OCc3cc(=O)n4ccc(C)cc4n3)cc2)c1`, the “activity change, negative = growth inhibition” value was inactive: -9.78%.
In the case of `COc1ccc(NC(=O)c2ccc(C#CC(C)(C)O)cc2)cc1`, the activity change, negative = growth inhibition is reported as inconclusive: -31.5% [inhibitor].
For `O=C(Cc1ccccc1)N/N=C/c1ccc(-c2ccc([N+](=O)[O-])cc2)o1`, the Potency was inconclusive: 11.6 µM [inhibitor, partial curve, poor fit].
In the case of `O=C(NC1CC1)C1=C[C@@H](C2CCCCC2)C[C@@H](OCc2ccc(CO)cc2)O1`, the Potency is reported as inconclusive: 23.1 µM [inhibitor, single point].
With `COc1cccc(NC(=O)N(CCCN2CCOCC2)C(C)c2cc3ccccc3o2)c1` (centres undefined) the Potency was inconclusive: 35.5 µM [inhibitor, single point].
In the case of `Cc1ccc(OCc2cc(C(=O)N(CCO)Cc3cccs3)no2)cc1C`, the Potency is reported as inconclusive: 29.1 µM [inhibitor, single point].
For `Cc1ccc(NS(=O)(=O)c2ccc(-n3cccn3)cc2)c(Br)c1`, the Potency was active: 16.4 µM.
In the case of `COc1cc2c(cc1OC)C(COc1cc(C)cc(C)c1)N(C(=O)C(C)(C)C)CC2` (centres undefined), the Potency is reported as active: 25.9 µM.
For `CCCCCCCCN1[C@@H](CC(=O)O)c2cc(C(F)(F)F)ccc2S1(=O)=O`, the Potency was inconclusive: 35.5 µM [inhibitor, single point] and inconclusive: 29.1 µM [inhibitor, single point].
With `O=C(Nc1ccc2c(c1)OCO2)NC1(C(F)(F)F)Oc2ccccc2O1` the “activity change, negative = growth inhibition” value was inactive: -15.7%.
In the case of `COc1ccc(NC(=S)Nc2ccc(OCc3ccccc3)cc2)cc1OC`, the Potency is reported as inconclusive: 20.6 µM [inhibitor, partial curve, poor fit].
With `CCC(Nc1ccc(-c2nc(-c3ccccn3)no2)cc1[N+](=O)[O-])c1ccccc1` (centres undefined) the Potency was inconclusive: 6.51 µM [inhibitor, partial curve].
For `COc1ccc(/C(C)=N/NC(=O)c2ccccc2N)cc1`, the “activity change, negative = growth inhibition” value was inactive: -0.387%.
For `Cc1nc2ncnn2c(C)c1CCC(=O)N1CC(C)CC(C)C1` (centres undefined), the “activity change, negative = growth inhibition” value was inactive: -28.9%.
With `COc1ccc(NC(=O)n2ncc3c(C)cccc32)cc1OC` the Potency was inconclusive: 29.1 µM [inhibitor, single point].
For `COc1ccc(CC(=O)Nc2ccc(S(=O)(=O)N3CCCCC3)cc2)cc1OC`, the Potency was inconclusive: 29.1 µM [inhibitor, single point].
In the case of `COC(=O)CC[C@@H](C)[C@H]1CC[C@H]2[C@@H]3CC[C@@H]4C[C@H](O)CC[C@]4(C)[C@H]3C[C@H](O)[C@]12C`, the “activity change, negative = growth inhibition” value is reported as inactive: -31%.
In the case of `COc1ccccc1OCC(=O)NNC(=O)C1CCN(c2ncnc3sc(C)c(C)c23)CC1`, the Potency is reported as active: 13 µM.
For `Cc1ccc(NC(=O)c2cccs2)cc1NC(=O)c1cccc(F)c1`, the Potency was inconclusive: 23.1 µM [inhibitor, single point].
In the case of `Clc1ccccc1-c1nc2ccccc2c2nc3ccccc3n12`, the Potency is reported as active: 13 µM.
In the case of `CCc1nnc(SCC(=O)N2CCCC(N3CCN(c4ccccc4C)CC3)C2)o1` (centres undefined), the Potency is reported as inconclusive: 29.1 µM [inhibitor, single point].
With `COc1ccc(CCC(C)Nc2ccc(F)cc2)cc1` (centres undefined) the “activity change, negative = growth inhibition” value was inactive: -14.6%.
With `CC(C)(C)S(=O)(=O)N1C[C@H]2C(=CC[C@@H]3C(=O)N(c4ccccc4)C(=O)[C@@H]32)[C@H]1CCO` the Potency was inconclusive: 29.1 µM [inhibitor, single point].
In the case of `CCCCCCOC(=O)C(C#N)c1nc2ccccc2nc1N1CCN(CC)CC1` (centres undefined), the Potency is reported as active: 20.6 µM.
For `Cc1ccc(C(c2sc3nc(-c4ccco4)nn3c2O)N2CCN(c3ccc(F)cc3)CC2)cc1` (centres undefined), the “activity change, negative = growth inhibition” value was inactive: -7.61%.
With `CCCn1c(=O)c(C(=O)Nc2cc(C)ccn2)c(O)c2ccccc21` the Potency was inconclusive: 29.1 µM [inhibitor, single point].
With `COc1ccc([C@H]2[C@@H]3C=CCC[C@@]3(C)C(=O)N2Cc2ccccc2)cc1Cl` the Potency was active: 20.6 µM.
For `Cc1oc(-c2cccc(Cl)c2)nc1Cn1c(SCc2ccc(F)cc2)nc2cccnc21`, the Potency was active: 25.9 µM.
In the case of `CC(C)C(NS(=O)(=O)c1cccc2nsnc12)C(=O)Nc1nc2ccc(Cl)cc2s1` (centres undefined), the Potency is reported as inconclusive: 29.1 µM [inhibitor, single point].
For `COCCn1c(SCc2nc3scc(-c4ccc(Cl)cc4)c3c(=O)[nH]2)nnc1-c1cccc(C)c1`, the Potency was inconclusive: 20.6 µM [inhibitor, single point].
With `CCCNC(=O)c1ccc(N2CCC3(CC2)CC(c2cccc(Br)c2)=NO3)c(NC(=O)c2cccc(C)c2)c1` the Potency was inconclusive: 20.6 µM [inhibitor, single point].
In the case of `C/C(O)=C(/C#N)c1nc2ccccc2[nH]1`, the Potency is reported as inconclusive: 18.4 µM [inhibitor, single point].
For `Cc1cccc(N2CCn3c2nc2c3c(=O)n(CCCc3ccccc3)c(=O)n2C)c1`, the Potency was inconclusive: 2.06 µM [inhibitor, full curve, poor fit].
With `CCOC(=O)c1[nH]c(=S)[nH]c1C` the “activity change, negative = growth inhibition” value was inactive: -27.3%.
For `CC(=O)c1c(C)[nH]c(C(=O)Nc2ccc(C)cc2Br)c1C`, the Potency was inconclusive: 23.1 µM [inhibitor, single point].
In the case of `O=S(=O)(Cc1cc(NCc2ccccc2)nc(-c2ccccn2)n1)c1ccccc1`, the Potency is reported as active: 4.61 µM.
With `C[C@H](CO)N1C[C@H](C)[C@@H](CN(C)S(=O)(=O)c2ccc(F)cc2)Oc2ccc(NC(=O)Nc3ccc(C(F)(F)F)cc3)cc2C1=O` the Potency was inconclusive: 29.1 µM [inhibitor, single point].
In the case of `O=C1N=C(N2CCN(c3ccccc3)CC2)SC1Cc1ccccc1` (centres undefined), the Potency is reported as inconclusive: 20.6 µM [inhibitor, single point].
In the case of `NC(=S)NN=C1c2ccccc2-c2cc(Br)ccc21`, the Potency is reported as active: 3.66 µM.
In the case of `CCC(C)OC(=O)/C(C#N)=C/c1ccc(-c2ccc(Br)cc2)o1` (centres undefined), the Potency is reported as inconclusive: 23.1 µM [inhibitor, single point].
For `COC(=O)c1ccc(N2C(=O)CC(Sc3n[nH]c(C)n3)C2=O)cc1` (centres undefined), the Potency was active: 5.17 µM.
With `COc1cc(OC)c(N2CC(C(=O)NCCC3=CCCCC3)CC2=O)cc1Cl` (centres undefined) the Potency was inconclusive: 18.4 µM [inhibitor, partial curve].
In the case of `COc1cccc(C(=O)N2CCn3c2nc2ccccc23)c1`, the “activity change, negative = growth inhibition” value is reported as inactive: -9.39%.
For `COc1ccc(-c2c(N)nnc3c2[nH]c2ccccc23)cc1OC`, the Potency was active: 20.6 µM.
For `Cc1cc2n(n1)CCCN2C(=O)Nc1ccccc1C(F)(F)F`, the “activity change, negative = growth inhibition” value was inactive: -17.8%.
For `S=C(NN=Cc1ccccn1)N(Cc1ccccn1)Cc1ccccn1`, the Potency was active: 0.92 µM.
With `O=C(N/N=C/c1ccc(O)cc1)c1cc(C23CC4CC(CC(C4)C2)C3)[nH]n1` the Potency was inconclusive: 20.6 µM [inhibitor, single point].
For `CN(C)c1nnnn1-c1ccc(Oc2ncc(C(F)(F)F)cc2Cl)cc1`, the Potency was inconclusive: 14.6 µM [inhibitor, partial curve, poor fit].
In the case of `CCn1c(SCc2ccc(Cl)cc2)nc2nc3c(cc2c1=O)CCCC3`, the Potency is reported as inconclusive: 29.1 µM [inhibitor, single point].
In the case of `CCc1ccc(S(=O)(=O)c2nnn3c2nc(N(CC)Cc2ccccc2)c2cc(Cl)ccc23)cc1`, the Potency is reported as active: 16.4 µM.
For `COc1cccc(C2c3[nH]c4ccccc4c3C[C@H]3C(=O)N(CCCCCO)CC(=O)N23)c1` (some centres undefined), the “activity change, negative = growth inhibition” value was inactive: -7.85%.
In the case of `O=c1[nH]c(CSc2nc(-c3ccccc3)cs2)nc2ccccc12`, the Potency is reported as inconclusive: 29.1 µM [inhibitor, single point].
With `O=C(CN1CCN(C(=S)NC2CCCC2)CC1)Nc1ccc(Oc2ccccc2)cc1` the Potency was inconclusive: 20.6 µM [inhibitor, single point].
For `CCCNC(=O)C1(C)CCN(CCC(=O)c2ccc(Br)cc2)C1` (centres undefined), the Potency was active: 3.26 µM.
With `CC(C)Cc1ccc(S(=O)(=O)N2CCN(C(=O)c3ccco3)CC2)cc1` the Potency was inconclusive: 31.6 µM [inhibitor, partial curve].
For `CC(C)(C)C(=O)Nc1ccc2c(c1)OCCOCCOc1cc(NC(=O)C(C)(C)C)ccc1OCCOCCO2`, the “activity change, negative = growth inhibition” value was inactive: -29.1%.
For `COCCCC1CCN(C(=O)C2CCC(=O)N(C3CCCCCC3)C2)CC1` (centres undefined), the Potency was inconclusive: 29.1 µM [inhibitor, single point].
In the case of `Cc1ccc(NC(=O)CC2C(=O)N(Cc3ccccc3)C(=S)N2NC(=O)c2cccc(F)c2)c(C)c1` (centres undefined), the Potency is reported as inconclusive: 20.6 µM [inhibitor, single point].

Source: PubChem BioAssay AID686978 (National Center for Advancing Translational Sciences (NCATS), 2013)
% is set by controls: 0 for no effect and ±100 for the full control effect; potency is the fitted concentration of half-maximal effect; tags give direction and shape of the fitted curve.
